167 variants from the RNAGym collection of RNA variant scans (doi:10.7554/elife.90254) can be followed below.

Read counts are not given, so values of variants with three or more changes are uncertain.

B1: LINE1-mini (parent)
chain: GGCAGAGCUCAACACAGCGUGGCAAAGUGGCUGUGGCUAGACUGCC

Variants of B1 are the subject of this data set. In words: self-cleavage, relative activity (ratio to wild type); higher = more cleavage; in vitro, sequencing; the parent is a self-cleaving ribozyme.
Turning to A11U C15A A26U, the self-cleavage came to 0.04.

With C8A G22A G35U C46G, the self-cleavage came to 0.32.

On to A14C A16U G36U, for which the self-cleavage worked out at 0.04.

Regarding A12C U28A G44U, the self-cleavage came out at 0.03.

As to A14G A16C C18G G22A, the self-cleavage is 0.09.

C13U A25C C45U: the self-cleavage was determined as 0.02.

For the variant C10G G19A U28A G40C, the self-cleavage was determined as 0.01.

Regarding G27A G29C G33U G35A C37A, the self-cleavage is 0.03.

For A16C U20A G27C, the self-cleavage turned out to be 0.15.

For the variant G1C A11U C18U U34A G35C, the self-cleavage is 0.

As to U9G C15A G40U, the self-cleavage is 0.28.

Turning to C13U G22A C37U, the self-cleavage amounted to 0.87.

For the variant C3U A12U G19U A24C U32C, the self-cleavage was determined as 0.

Regarding G1A C13A G36C C46G, the self-cleavage was found to be 0.17.

As to U9A G22U U32G, the self-cleavage was 0.19.

For G1C G7A A16G A24G, the self-cleavage came out at 0.03.

Take G1A C8A A14U C23A G33C: the self-cleavage was 0.24.

Regarding G1U A11G A14C, the self-cleavage amounted to 0.01.

Turning to G2A G35U G44C, the self-cleavage was 0.14.

For G2C G7C C10A A11G G27C G40U, the self-cleavage was found to be 0.01.

For C13G C18U U28G G30C G33U C46U, the self-cleavage was found to be 0.03.

C15U G17A U28G G30A: the self-cleavage was determined as 0.03.

As to C3G U9G A11C G21A C31A G40C C46U, the self-cleavage turned out to be 0.01.

For the variant G2A A6G A14U U28C G40C, the self-cleavage stood at 0.04.

Consider C10A G17U G40C, for which the self-cleavage was found to be 0.04.

As to C3A A4U G5A C8G A12U G22A G29C C37U, the self-cleavage was 0.01.

On to A14C G33U A39U, for which the self-cleavage is 0.02.

Consider C3U A14G A24C, for which the self-cleavage stood at 0.08.

In the case of C10G U20C G40C G44U, the self-cleavage worked out at 0.01.

On to G2C G21C A26U U32G, for which the self-cleavage came to 0.03.

In the case of G2C C23G A41C, the self-cleavage was 0.13.

Turning to A4C C18U G30U, the self-cleavage was 0.23.

Regarding C3U G19A U38C, the self-cleavage was 0.26.

On to G7A C8A U9C C23A G40U, for which the self-cleavage worked out at 0.05.

Take G1U A6G A11G A16G G29C: the self-cleavage was 0.01.

Take C15A U28A G36U U43A: the self-cleavage was found to be 0.02.

As to A14G G21A U28G C37U, the self-cleavage came out at 0.01.

For G5A C18U U20A A26C U32G, the self-cleavage amounted to 0.02.

Take A6C C23A C31A G35A: the self-cleavage was found to be 0.01.

As for A11C U34A G36C, the self-cleavage amounted to 0.

Take C3G G27A U38C C42G: the self-cleavage is 0.16.

For C8G C37A U43C, the self-cleavage worked out at 0.02.

Turning to C15U G33C C46G, the self-cleavage was determined as 0.1.

Regarding G5U G21U C23G, the self-cleavage turned out to be 0.34.

Regarding A12G G33C A39G, the self-cleavage was found to be 0.02.

As to G5C G7U C8U C13U, the self-cleavage was determined as 1.08.

For the variant A6U A39G G44U C45G, the self-cleavage stood at 0.08.

For G17C G22C C46A, the self-cleavage amounted to 0.31.

Regarding A11U G17A C23A G35C, the self-cleavage stood at 0.

Regarding A11U U20C G30C G35C, the self-cleavage amounted to 0.03.

A25C A26C G27U: the self-cleavage was 0.82.

Consider G1U A4G G44C C45G C46G, for which the self-cleavage turned out to be 0.14.

Turning to C15G C23A G27C G29C U34G, the self-cleavage is 0.

Regarding A6C G7A C13G, the self-cleavage was 0.34.

Turning to U20G U32G C45U, the self-cleavage was 0.

Turning to A4U G7C A16G G33U, the self-cleavage was 0.01.

Regarding C3A A11C G22C C42G, the self-cleavage turned out to be 0.03.

Turning to C13A G19A G21U G29C, the self-cleavage turned out to be 0.07.

With A16G G30U A39U, the self-cleavage amounted to 0.09.

On to A11C A25C G40C, for which the self-cleavage turned out to be 0.02.

As for C3G A25U C31A C42A, the self-cleavage was determined as 0.12.

In the case of G2C C3U U9A A14C C37A G40A, the self-cleavage was 0.12.

Take G1C A6U A16U: the self-cleavage is 0.01.

In the case of G2U C10A G30U U38A, the self-cleavage was 0.02.

Turning to C3A C8U C15A U34A, the self-cleavage came to 0.22.

As to C15A A25U C46G, the self-cleavage is 0.08.

G19C C31G C46U: the self-cleavage worked out at 0.26.

On to C18A U34C C37U, for which the self-cleavage is 0.

As to G5C G7A C8U, the self-cleavage was found to be 0.73.

As for U9G A24C C46A, the self-cleavage was 0.02.

For C3G C15A C37U, the self-cleavage came out at 0.13.

With G7U A12G G44C C45A, the self-cleavage amounted to 0.03.

For the variant C15A C31A G40C, the self-cleavage is 0.01.

For the variant G21U A26U G33A C45G, the self-cleavage was determined as 0.03.

Consider G21C A24U G36U, for which the self-cleavage came out at 0.34.

As to U20G U34C G40U, the self-cleavage stood at 0.07.

In the case of A4G G40U C46G, the self-cleavage turned out to be 0.

In the case of A25U G29A C37U, the self-cleavage stood at 0.04.

For G1A G17U A26U U28G, the self-cleavage came to 0.34.

On to A4G G33U A39G C46G, for which the self-cleavage came out at 0.04.

Turning to C10A G19U A41G, the self-cleavage came out at 0.01.

C8A C13A A16U C23U A26U G35U: the self-cleavage was 0.06.

As to C8G C15A U20A G22A C37G, the self-cleavage came to 0.02.

C3A G5C A14G G19A U32C: the self-cleavage stood at 0.16.

In the case of C8G C18A G21U, the self-cleavage came to 0.1.

Consider C8A C15U U28A, for which the self-cleavage came out at 0.1.

For the variant A6G C18G C23U G40U, the self-cleavage came out at 0.02.

Turning to U9G G22C C23A, the self-cleavage was found to be 0.01.

Turning to A24C U38C G44U, the self-cleavage is 0.07.

Turning to U20C C23A C37G, the self-cleavage came out at 0.14.

As for C3U A16G U34A G40U, the self-cleavage amounted to 0.07.

For the variant G2A U9A G22A G33A G36A U38A, the self-cleavage was determined as 0.14.

Regarding G2A A12C G19A C23G A39G C45U, the self-cleavage is 0.

For C13A G40C G44U, the self-cleavage was 0.14.

On to C13A C23G U34C, for which the self-cleavage amounted to 0.07.

As for A6U A12U C37G U38G A41C U43G, the self-cleavage turned out to be 0.

Regarding C13U G30A C42G, the self-cleavage stood at 0.03.

Take G2C C10G G22C G35U G36A U38C: the self-cleavage was 0.01.

In the case of A6U U9G C10A U38A, the self-cleavage was 0.01.

For the variant A6C C18G A24C, the self-cleavage worked out at 0.09.

For A26C G29A U32C C37A, the self-cleavage is 0.1.

As to U28G C45A C46U, the self-cleavage worked out at 0.17.

Regarding A6C C10U G22A C37A U38C, the self-cleavage was found to be 0.02.

Take C31U U32G U38C C42G G44U: the self-cleavage stood at 0.

Turning to C13A C15G G35C, the self-cleavage worked out at 0.09.

As to A6G C10U G40U, the self-cleavage is 0.03.

For G1U A11U A25U C45G, the self-cleavage came out at 0.01.

With G1U A4U G5U A26G, the self-cleavage was 0.02.

A14C C15U A39C: the self-cleavage stood at 0.03.

With C8G C10G G44U, the self-cleavage was found to be 0.02.

For the variant G27A C31A G35A, the self-cleavage was found to be 0.03.

In the case of C10U G21A G22C A26G G30C, the self-cleavage stood at 0.46.

Turning to U9G C37U A39G, the self-cleavage was 0.05.

For the variant C3U G21U G27U C31G, the self-cleavage turned out to be 0.02.

Consider A24G U28A U43G, for which the self-cleavage came out at 0.

As to A11U G35A C37U, the self-cleavage amounted to 0.02.

As to G2U G5C G36A G44A C46A, the self-cleavage amounted to 0.

Turning to G7U G17C G27C C31A U34A, the self-cleavage is 0.03.

Turning to A12C G17A U43C, the self-cleavage amounted to 0.

Regarding A25C A26G U28C, the self-cleavage was 0.32.

Take A6C U32A U34A U43C: the self-cleavage worked out at 0.02.

Turning to C3U A12C G22A C23A, the self-cleavage was 0.03.

As to C13A G36A C37U C45U, the self-cleavage is 0.08.

In the case of C13G G17U G21U U28G C37A, the self-cleavage came out at 0.05.

With A4G C10A A12U A14G, the self-cleavage came out at 0.

On to G1A A4C U9A G27A G29U, for which the self-cleavage turned out to be 0.26.

As for G5U C8G G19A U32A G33A, the self-cleavage came out at 0.2.

On to G5A C37G G40A U43C, for which the self-cleavage was 0.04.

Regarding U9C G30U C31A, the self-cleavage turned out to be 0.04.

With A6G G7U C15U, the self-cleavage is 0.06.

With C15A C23A G33A U43A C46A, the self-cleavage turned out to be 0.04.

Turning to G2A A11U C15U A16U, the self-cleavage was determined as 0.02.

With G2U A6U A41G, the self-cleavage is 0.2.

For U9A C13A U32G C37A, the self-cleavage stood at 0.52.

For G2A A6U G30A C42A, the self-cleavage turned out to be 0.17.

In the case of C3U A6C U32A C45G, the self-cleavage amounted to 0.08.

For G2U C31G G33U C45U, the self-cleavage came to 0.02.

On to G1U G5A C8U A25C U32A C45A, for which the self-cleavage is 0.16.

For G5C G21C A24U G36U C45U, the self-cleavage is 1.39.

In the case of C10U C13U G22C, the self-cleavage was found to be 0.04.

In the case of A4C U20A G22U, the self-cleavage was 0.04.

Turning to A11U A14G G19A, the self-cleavage is 0.01.

For C13G G17A G22C G36C, the self-cleavage is 0.03.

U20G G21U G33U C37G: the self-cleavage was found to be 0.02.

On to G2C C10G A14C, for which the self-cleavage amounted to 0.01.

For the variant C13A G30A U32G C42G, the self-cleavage is 0.02.

As for A12G U20A G30A A39G C46A, the self-cleavage stood at 0.01.

On to C8G A11C C15G, for which the self-cleavage was 0.02.

In the case of A12C A26G G35A, the self-cleavage was found to be 0.02.

For C8A U9C G44U, the self-cleavage came out at 0.16.

C31A G36A C37A: the self-cleavage amounted to 0.1.

As for A6C A11C G27C G35A, the self-cleavage was determined as 0.03.

On to G7A G40U A41U, for which the self-cleavage was 0.22.

Consider A24U G33A G44C, for which the self-cleavage is 0.01.

As to G5C G29A C46U, the self-cleavage is 0.22.

For the variant G5A G19U U32C, the self-cleavage was 0.05.

For C10A C13A A39C A41G C45U C46U, the self-cleavage was found to be 0.

As to G30A C31G C46A, the self-cleavage stood at 0.01.

With U20C A24U C37U G44C, the self-cleavage is 0.05.

On to U9A A26C G27A G44U, for which the self-cleavage worked out at 0.11.

As for C3U U9A G17U, the self-cleavage was found to be 0.1.

Consider U9G C15A G19A, for which the self-cleavage amounted to 0.13.

On to G7U C8U A24G, for which the self-cleavage was 0.26.

On to A6U C10A C18G U34A, for which the self-cleavage amounted to 0.02.

Take A6U C15G G33A G35A: the self-cleavage was determined as 0.15.

A25G G33C A39G: the self-cleavage is 0.03.

Take G5U A16U G21U: the self-cleavage turned out to be 0.08.
